In the supplement of paper PMC10037445:
Where “and” joins values, the source holds several entries; their conditions need not be identical. Identical values can stand only once. The full ranking holds about 2,900 compounds; the median of “NF-kB SEAP reporter activity, fold change vs agonist alone” is about 0.99, and the highest 2% start at about 2.6. This is one part of the list.

Assays:
RAW-Dual [1] = test: NF-kB SEAP reporter activity, fold change vs agonist alone; cytotoxicity flag (confluency mask): not cytotoxic; higher = enhanced NF-kB activity
Outline: (§1)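 Supernatant from RAW-Dual macrophages was read after 20 hours for IRF by QuantiLuc luminescence and for NF-κB by QuantiBlue absorbance at 620 nm. The cells (50,000 cells/well in DMEM, 384-well plates, 37 °C, 5% CO2) had received 50 nL of library stock by pin tool and, 1 h later, a PRR agonist. Reporter activity is expressed relative to agonist-alone wells as fold change, and wells were flagged cytotoxic if IncuCyte confluency was under 70% of agonist controls in both mask sets.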

RAW-Dual [2] = test: NF-kB SEAP reporter activity, fold change vs agonist alone; higher = enhanced NF-kB activity
Outline: as §1

RAW-Dual [3] = test: NF-kB SEAP reporter activity, fold change vs agonist alone; cytotoxicity flag (confluency mask): cytotoxic (confluency <70% of control); higher = enhanced NF-kB activity
Outline: as §1

[4] = agonist: ODN 1826 (TLR9) 0.5 ug/mL
[5] = agonist: Pam2CSK4 (TLR2/6) 0.1 ug/mL
[6] = agonist: Pam3CSK4 (TLR2/1) 0.1 ug/mL
[7] = library stock concentration (final ~1000-fold dilution): 10 mM, cytotoxicity flag (confluency mask): not cytotoxic, agonist: Imiquimod (TLR7) […]
[8] = library stock concentration (final ~1000-fold dilution): 10 mM, cytotoxicity flag (confluency mask): not cytotoxic, agonist: MPLA (TLR4) […]

Cn1c(=O)c2[nH]cnc2n(C)c1=O.Cn1c(=O)c2[nH]cnc2n(C)c1=O.NCCN (library stock concentration (final ~1000-fold dilution): 10 mM)
NF-kB SEAP reporter activity (RAW-Dual [1]; agonist: LPS (TLR4) 0.1 ug/mL): 1.11 | NF-kB SEAP reporter activity (RAW-Dual [1]; [4]): 0.958 | NF-kB SEAP reporter activity (RAW-Dual [1]; [5]): 1.14 | NF-kB SEAP reporter activity (RAW-Dual [1]; [6]): 1.13

Cn1c(=O)c2[nH]cnc2n(C)c1=O.Cn1c(=O)c2[nH]cnc2n(C)c1=O.NCCN
NF-kB SEAP reporter activity (RAW-Dual [2]; [7]): 0.765 | NF-kB SEAP reporter activity (RAW-Dual [2]; [8]): 1.06

CC(=O)Oc1ccccc1C(=O)O.CC(=O)Oc1ccccc1C(=O)O.NC(N)=O (library stock concentration (final ~1000-fold dilution): 10 mM)
NF-kB SEAP reporter activity (RAW-Dual [1]; agonist: LPS (TLR4) 0.1 ug/mL): 0.797 | NF-kB SEAP reporter activity (RAW-Dual [1]; [4]): 0.977 | NF-kB SEAP reporter activity (RAW-Dual [1]; [5]): 1.14 | NF-kB SEAP reporter activity (RAW-Dual [1]; [6]): 0.999

CC(=O)Oc1ccccc1C(=O)O.CC(=O)Oc1ccccc1C(=O)O.NC(N)=O
NF-kB SEAP reporter activity (RAW-Dual [2]; [7]): 0.905 | NF-kB SEAP reporter activity (RAW-Dual [2]; [8]): 1.07

Cl.Cl.O=S(=O)(NCCNC/C=C/c1ccc(Br)cc1)c1cccc2cnccc12
NF-kB SEAP reporter activity (RAW-Dual [2]; [7]): 1.61 | NF-kB SEAP reporter activity (RAW-Dual [2]; [8]): 1.3

Cl.Cl.O=S(=O)(NCCNC/C=C/c1ccc(Br)cc1)c1cccc2cnccc12 (library stock concentration (final ~1000-fold dilution): 10 mM)
NF-kB SEAP reporter activity (RAW-Dual [1]; agonist: LPS (TLR4) 0.1 ug/mL): 1.26 | NF-kB SEAP reporter activity (RAW-Dual [1]; [4]): 0.195 | NF-kB SEAP reporter activity (RAW-Dual [1]; [5]): 0.923 | NF-kB SEAP reporter activity (RAW-Dual [1]; [6]): 1.13

c1cn2cc(-c3ccc4cn[nH]c4c3)nc(Nc3ccc(N4CCOCC4)cc3)c2n1 (library stock concentration (final ~1000-fold dilution): 10 mM)
NF-kB SEAP reporter activity (RAW-Dual [1]; agonist: LPS (TLR4) 0.1 ug/mL): 1.06 | NF-kB SEAP reporter activity (RAW-Dual [1]; [4]): 1.06 | NF-kB SEAP reporter activity (RAW-Dual [1]; [5]): 0.882 | NF-kB SEAP reporter activity (RAW-Dual [1]; [6]): 1.06

c1cn2cc(-c3ccc4cn[nH]c4c3)nc(Nc3ccc(N4CCOCC4)cc3)c2n1
NF-kB SEAP reporter activity (RAW-Dual [2]; [7]): 1.03 | NF-kB SEAP reporter activity (RAW-Dual [2]; [8]): 1.06

CCC(NC(=O)C(C)NC)C(=O)N1CC(O)CC1Cc1c(-c2[nH]c3cc(F)ccc3c2CC2CC(O)CN2C(=O)C(CC)NC(=O)C(C)NC)[nH]c2cc(F)ccc12 (stereo not drawn) (library stock concentration (final ~1000-fold dilution): 10 mM)
NF-kB SEAP reporter activity (RAW-Dual [1]; agonist: LPS (TLR4) 0.1 ug/mL): 0.863 | NF-kB SEAP reporter activity (RAW-Dual [1]; [4]): 0.906 | NF-kB SEAP reporter activity (RAW-Dual [1]; [5]): 0.956 | NF-kB SEAP reporter activity (RAW-Dual [1]; [6]): 0.975

CCC(NC(=O)C(C)NC)C(=O)N1CC(O)CC1Cc1c(-c2[nH]c3cc(F)ccc3c2CC2CC(O)CN2C(=O)C(CC)NC(=O)C(C)NC)[nH]c2cc(F)ccc12 (stereo not drawn)
NF-kB SEAP reporter activity (RAW-Dual [2]; [7]): 0.863 | NF-kB SEAP reporter activity (RAW-Dual [2]; [8]): 0.688

NC1CCCN(c2c(Br)cnc3[nH]cc(NC(=O)C4CC4)c23)C1 (stereo not drawn)
NF-kB SEAP reporter activity (RAW-Dual [2]; library stock concentration (final ~1000-fold dilution): 10 mM, cytotoxicity flag (confluency mask): cytotoxic (confluency <70% of control), agonist: Imiquimod (TLR7) […]): 0.557 | NF-kB SEAP reporter activity (RAW-Dual [2]; library stock concentration (final ~1000-fold dilution): 10 mM, cytotoxicity flag (confluency mask): cytotoxic (confluency <70% of control), agonist: MPLA (TLR4) […]): 0.792

NC1CCCN(c2c(Br)cnc3[nH]cc(NC(=O)C4CC4)c23)C1 (stereo not drawn) (library stock concentration (final ~1000-fold dilution): 10 mM)
NF-kB SEAP reporter activity (RAW-Dual [3]; agonist: LPS (TLR4) 0.1 ug/mL): 1.1 | NF-kB SEAP reporter activity (RAW-Dual [3]; [4]): 0.621 | NF-kB SEAP reporter activity (RAW-Dual [3]; [5]): 0.375 | NF-kB SEAP reporter activity (RAW-Dual [3]; [6]): 0.487

CC(C)OC(=O)CCC/C=C\CC1C(O)CC(O)C1CCC(O)CCc1ccccc1 (stereo not drawn)
NF-kB SEAP reporter activity (RAW-Dual [2]; [8]): 1.43

CC(C)OC(=O)CCC/C=C\CC1C(O)CC(O)C1CCC(O)CCc1ccccc1 (stereo not drawn) (library stock concentration (final ~1000-fold dilution): 10 mM)
NF-kB SEAP reporter activity (RAW-Dual [1]; agonist: LPS (TLR4) 0.1 ug/mL): 1.4 | NF-kB SEAP reporter activity (RAW-Dual [1]; [4]): 0.911 | NF-kB SEAP reporter activity (RAW-Dual [1]; [5]): 1.1 | NF-kB SEAP reporter activity (RAW-Dual [1]; [6]): 0.929

O=C1CCC(N2C(=O)c3ccccc3C2=O)C(=O)N1 (stereo not drawn) (library stock concentration (final ~1000-fold dilution): 10 mM)
NF-kB SEAP reporter activity (RAW-Dual [1]; agonist: LPS (TLR4) 0.1 ug/mL): 1.22 | NF-kB SEAP reporter activity (RAW-Dual [1]; [4]): 1.01 | NF-kB SEAP reporter activity (RAW-Dual [1]; [5]): 0.95 | NF-kB SEAP reporter activity (RAW-Dual [1]; [6]): 1.17

O=C1CCC(N2C(=O)c3ccccc3C2=O)C(=O)N1 (stereo not drawn)
NF-kB SEAP reporter activity (RAW-Dual [2]; [7]): 0.926 | NF-kB SEAP reporter activity (RAW-Dual [2]; [8]): 0.792

COc1c(O)cc2oc3cc(O)c(CC=C(C)C)c(O)c3c(=O)c2c1CC=C(C)C
NF-kB SEAP reporter activity (RAW-Dual [2]; [7]): 0.859 | NF-kB SEAP reporter activity (RAW-Dual [2]; [8]): 0.885

COc1c(O)cc2oc3cc(O)c(CC=C(C)C)c(O)c3c(=O)c2c1CC=C(C)C (library stock concentration (final ~1000-fold dilution): 10 mM)
NF-kB SEAP reporter activity (RAW-Dual [1]; agonist: LPS (TLR4) 0.1 ug/mL): 0.946 | NF-kB SEAP reporter activity (RAW-Dual [1]; [4]): 0.766 | NF-kB SEAP reporter activity (RAW-Dual [1]; [5]): 0.793 | NF-kB SEAP reporter activity (RAW-Dual [1]; [6]): 0.683

CCCCc1nc(Cl)c(CO)n1Cc1ccc(-c2ccccc2-c2nnn[nH]2)cc1 (library stock concentration (final ~1000-fold dilution): 10 mM)
NF-kB SEAP reporter activity (RAW-Dual [1]; agonist: LPS (TLR4) 0.1 ug/mL): 0.999 and 0.936 | NF-kB SEAP reporter activity (RAW-Dual [1]; [4]): 0.938 and 1.01 | NF-kB SEAP reporter activity (RAW-Dual [1]; [5]): 0.969 and 0.98 | NF-kB SEAP reporter activity (RAW-Dual [1]; [6]): 1.2 and 1.07

CCCCc1nc(Cl)c(CO)n1Cc1ccc(-c2ccccc2-c2nnn[nH]2)cc1
NF-kB SEAP reporter activity (RAW-Dual [2]; [7]): 0.875

Cc1nc2n(c(=O)c1CCN1CCC(c3noc4cc(F)ccc34)CC1)CCCC2O (stereo not drawn) (library stock concentration (final ~1000-fold dilution): 2 mM)
NF-kB SEAP reporter activity (RAW-Dual [1]; agonist: LPS (TLR4) 0.1 ug/mL): 1.18 | NF-kB SEAP reporter activity (RAW-Dual [1]; [4]): 1.04 | NF-kB SEAP reporter activity (RAW-Dual [1]; [5]): 1.13 | NF-kB SEAP reporter activity (RAW-Dual [1]; [6]): 1.18

Cc1nc2n(c(=O)c1CCN1CCC(c3noc4cc(F)ccc34)CC1)CCCC2O (stereo not drawn)
NF-kB SEAP reporter activity (RAW-Dual [2]; library stock concentration (final ~1000-fold dilution): 2 mM, cytotoxicity flag (confluency mask): not cytotoxic, agonist: Imiquimod (TLR7) […]): 1.01 | NF-kB SEAP reporter activity (RAW-Dual [2]; library stock concentration (final ~1000-fold dilution): 2 mM, cytotoxicity flag (confluency mask): not cytotoxic, agonist: MPLA (TLR4) […]): 1.01

C=CCSCC=C (library stock concentration (final ~1000-fold dilution): 10 mM)
NF-kB SEAP reporter activity (RAW-Dual [1]; agonist: LPS (TLR4) 0.1 ug/mL): 1.36 | NF-kB SEAP reporter activity (RAW-Dual [1]; [4]): 0.968 | NF-kB SEAP reporter activity (RAW-Dual [1]; [5]): 1.29 | NF-kB SEAP reporter activity (RAW-Dual [1]; [6]): 1.33

C=CCSCC=C
NF-kB SEAP reporter activity (RAW-Dual [2]; [8]): 1.06

CCN1CC(CCN2CCOCC2)C(c2ccccc2)(c2ccccc2)C1=O.Cl.O (stereo not drawn) (library stock concentration (final ~1000-fold dilution): 10 mM)
NF-kB SEAP reporter activity (RAW-Dual [1]; agonist: LPS (TLR4) 0.1 ug/mL): 1.04 | NF-kB SEAP reporter activity (RAW-Dual [1]; [4]): 0.882 | NF-kB SEAP reporter activity (RAW-Dual [1]; [5]): 1 | NF-kB SEAP reporter activity (RAW-Dual [1]; [6]): 1.07
